Laboratory results taken from US9853225B2, “Chalcogen-containing organic compound and a use thereof” (JNC CORPORATION, priority 2013, dated 2017).
Some values that stand alone complete this part of the results.

Test: Evaluation of thermal stability, DSC
Format: physicochemical
Details: heating 5° C. per minute

Structure (SMILES): CCCCCCCCCCc1ccc2cc3c(cc2c1)sc1cc2c(cc13)sc1cc3cc(CCCCCCCCCC)ccc3cc12 [Example 4, 3,11-didecyldinaphtho[2,3-d:2′,3′-d′]benzo[1,2-b:4,5-b′]dithiophene]
- phase transition points (first phase transition point): 217 °C
- phase transition points (second phase transition point): 260 °C
